# In the supplement of paper PMC10600219:
# Where a name gives a salt, the structure may show the parent alone. Whole data set: some 2,800 compounds, median “cell viability relative to vehicle” near 1.1, cut for the lowest 2% near 0.19. Some of the results follow.
# Tested on: NCI-H2228 parental
# Experiment: cell viability relative to vehicle (fraction of vehicle); NCI-H2228 is an ALK-positive lung cancer line and DTP means drug-tolerant persister; higher = less growth inhibition
# Conditions: 100 nM; treatment time 6 days
# Summary of the method: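 Parental NCI-H2228 cells and drug-tolerant persister cells (made with 1000 nM of a targeted drug for 13 days) were seeded in 384-well plates. The next day, the 3114-agent TargetMol anti-cancer compound library was added at 100 nM, with DMSO as vehicle. After 6 days, ATP was read with the CellTiter-Glo 3D Cell Viability Assay. Each value is cell viability relative to vehicle-treated cells.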
row,Structure (SMILES),cell viability
1,CC(=O)O[C@@]12CO[C@@H]1C[C@H](O)[C@@]1(C)C(=O)[C@H](O)C3=C(C)[C@@H](OC(=O)[C@H](O)[C@@H](NC(=O)OC(C)(C)C)c4ccccc4)C[C@@](O)([C@@H](OC(=O)c4ccccc4)[C@H]21)C3(C)C [Docetaxel],0.118
2,CC(=O)O[C@@]12CO[C@@H]1C[C@H](O)[C@@]1(C)C(=O)[C@H](O)C3=C(C)[C@@H](OC(=O)[C@H](O)[C@@H](NC(=O)OC(C)(C)C)c4ccccc4)C[C@@](O)([C@@H](OC(=O)c4ccccc4)[C@H]21)C3(C)C [Docetaxel trihydrate],0.154
3,C[C@H](NC(=O)/C(C#N)=C/c1cccc(Br)n1)c1ccccc1,1.05
4,CNC(=O)CNc1cnc2ccc(-c3ccc(OC)c(OC)c3)cc2n1,1.12
5,CCNC(=O)c1[nH]nc(-c2cc(Cl)c(O)cc2O)c1-c1ccc(OC)cc1,1.15
6,C[C@]12CC[C@@H]3c4ccc(O)cc4CC[C@H]3[C@@H]1CC[C@@H]2O [Estradiol],1.09
7,CCCN(CCC)S(=O)(=O)c1ccc(C(=O)O)cc1 [Probenecid],1.15
8,COc1ccc(C(=C2C(=O)Nc3ccccc32)c2ccc(OC)cc2)cc1,1.05
9,CC(C)(C)n1nc(Cc2cccc3ccccc23)c2c(N)ncnc21,0.946
10,CCN(CC)C(=O)c1cccnc1 [Nikethamide],1.1
11,O=c1[nH]c(=S)[nH]c(-c2ccccc2)c1Cc1c(O)ccc2ccccc12 [Cambinol],0.896
12,"CCN(CC)C(=O)c1cccc(C)c1 [N,N-Diethyl-m-toluamide]",1.05
13,O=C(NO)c1cnc(NC2(c3ccccc3)CC2)nc1,1.12
14,CC(=O)[C@H]1CC[C@H]2[C@@H]3CCC4=CC(=O)CC[C@]4(C)[C@H]3CC[C@]12C [Progesterone],1.16
15,Cn1cc(CNCC2CCN(c3ncc(C(=O)NO)cn3)CC2)c2ccccc21 [Quisinostat],0.159
16,CN(C)CC/C=C1/c2ccccc2Sc2ccc(Cl)cc21 [Chlorprothixene],0.997
17,CN1CCN(C(=O)C2C(C(=O)O)[C@H]3CC[C@@H]2O3)CC1 (some centres undefined),0.955
18,CN(C)CCOC(c1ccccc1)c1ccccc1 [Diphenhydramine hydrochloride],0.995
19,COc1ccc2c(c1)c(CC(=O)N1CCOCC1)c(C)n2C(=O)c1ccc(Cl)cc1,0.885
20,COc1cccc(C(=O)COc2ccc(CC3SC(=O)NC3=O)cc2)c1 (centres undefined),0.994
21,O=C1Cc2c([nH]c3ccc(Br)cc23)-c2ccccc2N1 [KenPaullone],1.12
22,CNCCCC12CCC(c3ccccc31)c1ccccc12 [Maprotiline hydrochloride],1.03
23,NCC1CCN(c2nccc(-c3ccc4ccccc4c3)n2)CC1,1
24,CO/N=C(\C(=O)N[C@@H]1C(=O)N2C(C(=O)[O-])=C(C[N+]3(C)CCCC3)CS[C@H]12)c1csc(N)n1 [Cefepime Dihydrochloride Monohydrate],1.19
25,Cc1cc2c(C(N)=O)cccc2n1-c1nc2c(c(NCc3ccccc3)n1)COCC2,1.08

row,Structure (SMILES),cell viability
1,Cc1coc2c1C(=O)C(=O)c1c-2ccc2c1CCCC2(C)C [Tanshinone IIA],0.922
2,O=C(NCc1cccc(O)c1)c1cc2cc(F)ccc2[nH]1,1.01
3,O=C(O[C@@H]1Cc2c(O)cc(O)cc2O[C@@H]1c1ccc(O)c(O)c1)c1cc(O)c(O)c(O)c1 [(-)-Epicatechin gallate],1.09
4,CC(=O)O[C@H]1C[C@@H]2CC[C@@H]3[C@H](CC[C@@]4(C)[C@H]3C[C@H]([N+]3(C)CCCCC3)[C@@H]4OC(C)=O)[C@@]2(C)C[C@@H]1N1CCCCC1 [Vecuronium bromide],0.99
5,C[C@]12C=CC(=O)C=C1CC[C@H]1[C@@H]3C[C@@H](O)[C@](O)(C(=O)CO)[C@@]3(C)C[C@H](O)[C@@]12F [Triamcinolone],1.12
6,N#Cc1ccc(COC[C@H]2O[C@@H](n3c(NCc4ccc(Cl)c(Cl)c4)nc4c(N)ncnc43)[C@H](O)[C@@H]2O)cc1,1.03
7,CC[C@@H](C)c1ccc(NC(=O)Cn2cnc3c2c(=O)n(C)c(=O)n3C)cc1 (racemic),0.944
8,C[C@@H]1O[C@@H](OC[C@H]2O[C@@H](Oc3c(-c4ccc(OCCO)c(OCCO)c4)oc4cc(OCCO)cc(O)c4c3=O)[C@H](O)[C@@H](O)[C@@H]2O)[C@H](O)[C@H](O)[C@H]1O [Troxerutin],1.11
9,CC(=O)CCCCn1c(=O)c2c(ncn2C)n(C)c1=O [Pentoxifylline],1.11
10,Cn1nccc1Nc1nccc(-c2cc3c(s2)C(C)(C)N(CCN2CCOCC2)C3=O)n1,1.08
11,CC(C)CN(CC(=O)N1CCN(CC(OCc2ccc3ccccc3c2)c2ccc(Cl)cc2Cl)CC1)CC(C)C (centres undefined),1.12
12,CN(C/C=C/c1ccccc1)Cc1cccc2ccccc12 [Naftifine hydrochloride],1.29
13,COc1cc2c(cc1OCCCN1CCCC1)N=C(N)C21CCC1,1.12
14,Nc1c(CC(=O)O)cccc1C(=O)c1ccc(Br)cc1 [Bromfenac sodium],1.12
15,C[C@H]1O[C@@H](n2cc(F)c(=O)[nH]c2=O)[C@H](O)[C@@H]1O [Doxifluridine],0.98
16,CC(C)(C)c1nc(-c2cccc(NS(=O)(=O)c3c(F)cccc3F)c2F)c(-c2ccnc(N)n2)s1 [Dabrafenib],0.894
17,Cc1cc(Nc2cc(N)ncn2)c(=O)n2c1C(=O)NC21CCCCC1,0.932
18,O=c1c(-c2ccc(O)cc2)coc2cc(O)ccc12 [Daidzein],1.01
19,CC1(C)CC[C@]2(C(=O)O)CC[C@]3(C)C(=CC[C@@H]4[C@@]5(C)CC[C@H](O)C(C)(C)[C@@H]5CC[C@]43C)[C@@H]2C1 [Oleanolic Acid],1.23
20,O=C(O)CCCCC(CCSCc1ccccc1)SCc1ccccc1 (centres undefined),1.16
21,CN1c2ccccc2C(=O)Nc2cnc(Nc3ccc(N4CCC(O)CC4)cc3)nc21,0.984
22,CC(C)(O)c1ccc2c(c1)ncn2-c1cccc(-c2ccccc2C#N)c1,0.988
23,O=C(Oc1ccccc1C(=O)O)c1ccccc1O [Sasapyrine],1.15
24,COc1c(C)c2c(c(O)c1C/C=C(\C)CCC(=O)O)C(=O)OC2 [Mycophenolic acid],1.16
25,CS(=O)(=O)c1ccc(-c2cnc(N)c(C(=O)Nc3ccccc3)n2)cc1,1.01

row,Structure (SMILES),cell viability
1,NS(=O)(=O)c1cc(Cl)c(Cl)c(S(N)(=O)=O)c1 [Dichlorphenamide],1.21
2,CCCCCNC(=N)N/N=C/c1c[nH]c2ccc(OC)cc12 [Tegaserod maleate],1.27
3,O=C(O)C1=CO[C@@H](O[C@@H]2O[C@H](CO)[C@@H](O)[C@H](O)[C@H]2O)[C@@H]2C(CO)=CC[C@H]12 [Geniposidic Acid],1.15
4,CN(C)CCOc1ccc(-c2nc(-c3ccncc3)c(-c3ccc4c(c3)CC/C4=N\O)[nH]2)cc1,1.06
5,C[C@H](Cc1cc2c(c(C(N)=O)c1)N(CCCO)CC2)NCCOc1ccccc1OCC(F)(F)F [Silodosin],1.07
6,C/C(=C\C(=O)Nc1ccccc1C(=O)O)c1ccc2ccccc2c1,0.98
7,O=C(c1ccc(/C=C/c2n[nH]c3ccccc23)cc1)N1CCNCC1,0.917
8,O=C(NCCN1CCOCC1)c1ccc(Cl)cc1 [Moclobemide],1.16
9,COc1ccc(C[C@H](N)C(=O)N[C@H]2[C@@H](O)[C@H](n3cnc4c(N(C)C)ncnc43)O[C@@H]2CO)cc1 [Puromycin dihydrochloride],1.04
10,Cc1ccnc(NS(=O)(=O)c2ccc(N)cc2)n1 [Sulfamerazine],0.88
11,NCCCC(O)(P(=O)(O)O)P(=O)(O)O [Alendronate sodium hydrate],1.01
12,N.N.O=C([O-])C[O-].[Pt+2] [Nedaplatin],0.999
13,COC(=O)N[C@H](C(=O)N[C@@H](Cc1ccccc1)[C@@H](O)CN(Cc1ccc(-c2ccccn2)cc1)NC(=O)[C@@H](NC(=O)OC)C(C)(C)C)C(C)(C)C [Atazanavir],0.982
14,COC(=O)Nc1ccc(-c2nc(N3CCOCC3)c3cnn(C4CCN(C(=O)OC)CC4)c3n2)cc1,0.854
15,N#CC(=Cc1cc(Cl)cc(Cl)c1)c1cccnc1,1.14
16,C[C@H](Cn1cnc2c(N)ncnc21)OCP(=O)(O)O [Tenofovir],1.14
17,OC(CCN1CCCCC1)(c1ccccc1)C1CCCCC1 (racemic) [DL-trihexyphenidyl hydrochloride],0.929
18,CCOC(=O)[C@H](CCc1ccccc1)N[C@@H](C)C(=O)N(CC(=O)O)C1Cc2ccccc2C1 [Delapril Hydrochloride],1.12
19,COc1nnc2ccc(N3CCC(c4ccc(OCCN5CCN(C)C(=O)[C@H]5C)cc4)CC3)nn12.O=C(O)c1ccc2cc(O)ccc2c1 [AZD5153 6-Hydroxy-2-naphthoic acid],0.783
20,C[C@H](CC(=O)C[C@@H](C)[C@H]1C[C@H](O)[C@@]2(C)C3=C(C(=O)C[C@]12C)[C@@]1(C)CCC(=O)C(C)(C)[C@@H]1C[C@@H]3O)C(=O)O [Ganoderic acid A],0.986
21,N#CC(c1ccnc(OCc2ccc(CN3CCOCC3)cc2)n1)c1nc2ccccc2s1 (centres undefined),1.05
22,O=c1c(O[C@@H]2O[C@H](CO)[C@@H](O)[C@H](O)[C@H]2O)c(-c2ccc(O)c(O)c2)oc2cc(O)cc(O)c12 [Isoquercitrin],0.983
23,O=c1c(O[C@@H]2O[C@H](CO)[C@@H](O)[C@H](O)[C@H]2O)c(-c2ccc(O)c(O)c2)oc2cc(O)cc(O)c12,1.03
24,CC(C)n1c(/C=C/C(O)CC(O)CC(=O)O)c(-c2ccc(F)cc2)c2ccccc21 (centres undefined) [Fluvastatin sodium salt],1.04
